The assay relates to 883617-216-R-J1-PDC complex spheroid viability. In words: Anticancer human tumor 883617-216-R-J1-PDC patient-derived bladder carcinoma cell line growth inhibition. To be noted: for IC50: compound alone; for viability, T/C: stronger effect = lower value. The text has this:
Multicellular complex tumor spheroid response to LSD1 Inhibitor Iadademstat in combination with a variety of drugs and investigational agents in selected tumor cell lines
The current study was undertaken to assess response to LSD1 inhibitors in combination with standard-of-care drugs and investigational agents in solid tumor complex spheroid models as well as in the K-562 leukemia. Complex spheroids include a stromal component modeled by human endothelial cells (HUVEC) and fibroblasts modeled by human mesenchymal stem cells (MSCs). The concentration ranges selected for each drug and investigational agent were based upon clinically achievable concentrations if the clinical Cmax of the agent was known.
Compounds. The drugs and investigational agents used in this study are listed on Table 1. All of the agents used, including staurosporine (NSC755774) and gemcitabine (NSC613327), were obtained from the Developmental Therapeutics Program, NCI. FDA-approved anticancer drugs are available from the NCI at http://dtp.nci.nih.gov/branches/dscb/oncology_drugset_explanation.html. Drugs and investigational agents were >95% pure by proton nuclear magnetic resonance (NMR) and liquid chromatography/mass spectrometry (LC/MS). Stock solutions were prepared at 400x in DMSO, stored at -70 degrees C, and diluted in fresh medium prior to their use. The final concentration of DMSO in cell culture wells never exceeded 0.25% (v/v). The FDA-approved anticancer drug set is available from the Developmental Therapeutics Program at https://dtp.cancer.gov/organization/dscb/obtaining/available_plates.htm. All drugs and investigational agents were tested over a range starting from a high concentration at or near the clinical Cmax and decreasing in half-log increments. If the clinical Cmax for an agent had not been determined, the highest concentration tested was 10 microM.
Cell Lines. The patient-derived cancer cell (PDC) lines: 292921-168-R-J2-PDC, K24384-001-R-PDC, and 521955-158-R2-J5-PDC pancreatic carcinomas, 556581-035-R-J1 ovarian carcinoma, 324938-238-R-J1-PDC, 855422-203-R-J1-PDC and 883617-216-R-J1-PDC urothelial bladder carcinomas, 743489-274-T-PDC renal cell carcinoma, 138582-R-J1 Merkel cell tumor, K60290-347-R-J1 and K57222-313-R-J1-PDC glioblastomas, 653999-131-R-J2-PDC, LG0703-F948-PDC, and 349418-098-R-PDC non-small cell lung carcinomas, 885512-296-R-J2-PDC, 171881-019-R-J1-PDC breast carcinomas and 186277-243-T-J2-PDC and 233499-124-R-J2-PDC colon carcinomas were obtained from the NCI Patient-Derived Models Repository (PDMR, https://pdmr.cancer.gov). The established cell lines NCI/ADR-RES (RRID:CVCL_14520 and OVCAR-5 (RRID:CVCL_1628) ovarian carcinomas, 786-O (RRID:CVCL_1051) and A498 (RRID:CVCL_A498) renal cell carcinoma, NCI-H211 (ATCC, cat. CRL-5824; RRID:CVCL_1529), NCI-H196 (ATCC, cat. CRL-5823, RRID:CVCL_1509), SW 1271 (ATCC, cat. CRL-2177, RRID:CVCL_1716) and NCI-H1876 (ATCC, cat. CRL-5902, RRID:CVCL_1503) small cell lung carcinomas, MDA-MB-231 (RRID:CVCL_0062) and MDA-MB-468 (RRID:CVCL_0419)breast carcinomas (10-12). Pooled donor human umbilical vein endothelial cells (HUVEC, Lonza, cat. CC-2519) and human mesenchymal stem cells (hMSC, Lonza, cat. PT-2501) were purchased from Lonza (Walkersville, MD).
Cell Culture. All cells were maintained in an incubator at 37 degrees C and 5% CO2 with 95% humidity. The PDC lines were cultured according to standard operating procedures established by the NCI PDMR (https://pdmr.cancer.gov). Briefly all PDCs were thawed and cultured in Matrigel-coated flasks prepared with a working solution of 1X Ham's F-12 nutrient mix, without supplementation (Invitrogen, Waltham, MA, cat. 11765054), 100 U/mL penicillin-streptomycin (Invitrogen, cat. 15140122), and 2.5% Matrigel (Corning Inc., Corning, NY, cat. 354248) for the first three passages. […]

Each structure is given as a SMILES string. Not every entry of the source has a single result; some have several. This list holds those alone. An entry can have further records. The records of an entry are repeats across runs, samples, wells, individuals or studies. Additions like (4×) say how often a value occurs here. A date in brackets names the month of the test. Some results are limits rather than exact numbers.
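Also: exposure lasted seven days after three days of spheroid growth.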
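For viability, T/C in this document: 100% = DMSO vehicle control luminescence.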

`Cn1ncnc1C1c2n[nH]c(=O)c3cc(F)cc(c23)NC1c1ccc(F)cc1` (stereo unspecified): the IC50 was > 100 nM [2021-11] and 9.07 nM [2021-12].
Regarding `NC1CC1c1ccc(-c2cccc(O)c2)cc1` (stereo unspecified), the viability, T/C is 106, 116 (3×), 117 (2×), 113 (2×), 121 (2×), 102, 128, 131, 109, 118 (2×), 107, 112, 135, 122, 114, 110, 124, 115% (2×) (compound alone 0.316 µM); 112 (2×), 116 (3×), 108, 122 (4×), 120 (2×), 138, 110 (2×), 102, 99, 113, 117, 109, 106, 115, 118, 135% (compound alone 1 µM); 93.6, 129, 105 (2×), 113 (3×), 97.5, 115, 103, 107 (2×), 112, 93.9, 89.9, 104, 130, 96.3, 110, 111 (2×), 92.7, 114, 136, 123% (compound alone 3.16 µM); 87.4, 97, 88.7, 81.8, 88.9, 93.4, 117, 93.1, 84, 89.2, 87.2, 84.2, 102, 89.3, 104, 80.6, 91.4, 99.3, 90.7, 78.8, 86.3, 105, 101, 109, 77.1% (compound alone 10 µM).
For `Nc1ncn(C2CC(O)C(CO)S2)c(=O)n1` (stereo unspecified), the IC50 is 173 nM [2021-11] and 14.9 nM [2021-12].

Values taken from PubChem BioAssay AID1918945 (Molecular Pharmacology Branch, DTP, NCI, 2023).
